# Experimental data from PubChem BioAssay AID651820 (National Center for Advancing Translational Sciences (NCATS), 2012).
# Hit rate of the full screen: of about 340,000 compounds, about 12,000 (3.5%) were called active. The shares of active, inactive and inconclusive entries below differ from those in the screen. The call rests on the fitted dose curve; in most records, active means well fitted inhibition curve with a large enough effect; inconclusive means small, poorly fitted or top-dose-only effect, or another doubt; inactive means no such curve, though single readings can be large or run the other way. No potency is given beside an inconclusive call; the fits are too rough.
# Assay: qHTS Assay for Inhibitors of Hepatitis C Virus (HCV)
# Settings: Huh7.5.1 HCVcc-Cre (HCVcc is cell-culture hepatitis C virus) infection, luciferase reporter, 44 h; activity change, negative = inhibition: at 41.8 µM (top of the series)
# Procedure, shortened: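 Luciferase read-out (15 sec integration) after a 15 min room-temperature substrate step quantifies HCVcc-Cre infection. Cells, 1,000 per well, had compound added 4 h post-plating, then virus at ~0.5 moi, and were cultured 44 h.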
# On the % scale 0 is the no-effect control and ±100 the full control effect; potency means the concentration at half of the fitted maximal effect; tags describe the fitted curve by direction and shape.
SMILES,"activity change, negative = inhibition",Potency
COc1ccc(/C=C/c2c(-c3ccc(OC)cc3)oc3ccccc23)cc1,inactive: 5.56%,–
COc1ccc2c(c1)CCc1c(C(=O)Nc3c(C)nn(Cc4ccccc4)c3C)noc1-2,–,active: 8.91 µM
CCOc1ncccc1C(=O)N1CCN(c2cc(Cl)ccc2C)CC1,–,"inconclusive [inhibitor, partial curve, poor fit]"
COC(=O)c1cc(OC)c(OC)cc1NC(=O)c1ccccc1,–,"inconclusive [inhibitor, partial curve]"
COc1ccc(CCNC(=O)N2c3ccccc3Sc3ccccc32)cc1,–,active: 10 µM
Cc1ccc(NC(=O)N2CCC(C(=O)c3ccc(F)cc3)CC2)cc1,inactive: -19.6%,–
COc1cc(C(=O)NCc2cc3cc(Cl)ccc3n2C)cc(OC)c1OC,–,"inconclusive [inhibitor, partial curve]"
CN(C)CC/C=C1\c2cc(F)ccc2CSc2ccccc21,–,"inconclusive [inhibitor, partial curve]"
COc1ccc2oc(C(=O)Nc3nc(C)cs3)c(C)c2c1,–,"inconclusive [inhibitor, partial curve, poor fit]"
COc1cccc(/C=N/NC(=O)c2nc(-c3ccccc3)cc(-c3ccccc3)n2)c1,inactive: 0.625%,–
N#Cc1ccc(CN2CCN(C(=O)CNC(=O)Cc3ccccc3)CC2)cc1,–,"inconclusive [inhibitor, single point]"
CCOCCCNS(=O)(=O)c1cc2[nH]c3c(c2cc1C)C(=O)CC(C)(C)C3,–,"inconclusive [inhibitor, partial curve]"
COc1ccc(S(=O)(=O)Nc2ccc3oc(C)c(C(C)=O)c3c2)cc1,–,active: 7.94 µM
Cc1cc(Br)c2c(c1)/C(=C/C(=O)c1cccs1)C(=O)N2,–,"inconclusive [inhibitor, single point]"
CCOc1ccc(N2CC(C(=O)Nc3cc(S(=O)(=O)N4CCCCC4)ccc3C)CC2=O)cc1 (stereo not given),–,"inconclusive [inhibitor, single point]"
CN(C)S(=O)(=O)Oc1ccsc1C(=O)Nc1cccc(Cl)c1Cl,–,"inconclusive [inhibitor, single point]"
O=C(Oc1ccc(/C=N/Nc2ccccc2)cc1)c1ccccc1,inactive: 1.04%,–
COc1cc(/C=C2/C(=N)N3N=C(C(C)C)SC3=NC2=O)ccc1OS(=O)(=O)c1ccccc1,inactive: 7.54%,–
CCn1c(COc2ccc(C)cc2)nnc1SCC(=O)Nc1ccc2c(c1)OCCO2,–,"inconclusive [inhibitor, single point]"
CCC(C)(C)NC(=O)C(c1ccc(C)cc1)N(Cc1ccco1)C(=O)CCC(=O)Nc1nccs1 (stereo not given),inactive: 13.1%,–
